Results are given in words; binding and its absence hold for the method and conditions named. For some assays here: In cells and extracts the contact can be indirect. Some entries that bind do so weakly or less than the wild type. For some assays here: Tags and fused reporters may be left off the sequences shown.
What was measured:
CBX7-Flag (mouse) = CBX7-Flag (mouse) (UniProt Q8VDS3); assay: co-IP; Flag purification of MEL-18-Flag, RYBP-Flag or CBX7-Flag from PGK12.1 mESC nuclear extract, analysed by western blot
MEL-18-Flag (mouse) [1] = target: T1, MEL-18-Flag (mouse) (UniProt P23798); assay: as above
T1 sequence: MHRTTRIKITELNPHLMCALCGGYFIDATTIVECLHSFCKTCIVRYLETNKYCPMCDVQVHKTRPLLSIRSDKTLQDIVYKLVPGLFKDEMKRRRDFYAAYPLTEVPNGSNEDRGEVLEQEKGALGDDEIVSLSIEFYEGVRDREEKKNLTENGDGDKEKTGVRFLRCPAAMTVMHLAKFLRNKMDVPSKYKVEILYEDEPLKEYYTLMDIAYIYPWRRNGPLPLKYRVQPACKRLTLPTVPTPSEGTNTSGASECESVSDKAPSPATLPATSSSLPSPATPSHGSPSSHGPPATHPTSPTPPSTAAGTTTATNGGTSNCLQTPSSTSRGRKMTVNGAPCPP

Amino acid sequences for entries named in this document (tags omitted).
UniProt Q9CQJ4: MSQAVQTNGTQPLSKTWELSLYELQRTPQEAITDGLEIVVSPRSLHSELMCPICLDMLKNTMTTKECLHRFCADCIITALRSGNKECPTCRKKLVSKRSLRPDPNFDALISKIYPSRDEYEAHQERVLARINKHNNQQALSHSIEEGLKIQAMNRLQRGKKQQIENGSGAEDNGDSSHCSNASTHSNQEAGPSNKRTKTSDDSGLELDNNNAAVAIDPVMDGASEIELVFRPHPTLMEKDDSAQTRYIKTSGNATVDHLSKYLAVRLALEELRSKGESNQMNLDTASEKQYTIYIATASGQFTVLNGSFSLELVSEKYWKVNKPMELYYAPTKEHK

[2] = target: CBX7 (mouse (endogenous in mESCs, NSCs, FSPE fibroblasts)) (UniProt Q8VDS3); assay: co-IP; endogenous proteins from Eed4 WT and Eed4 cKO (doxycycline, Eed-depleted) mESC nuclear extracts; antibodies to RING1B, MEL-18, RYBP or CBX7 crosslinked to Protein A/G magnetic beads; with or without Benzonase or EtBr; washes in C-100* (100 mM KCl) at 4°C; western blot
[3] = target: RING1B (mouse (endogenous in mESCs, NSCs, FSPE fibroblasts)) (UniProt Q9CQJ4); assay: as above
[4] = target: T2, MEL-18 (mouse (endogenous in mESCs, FSPE fibroblasts)) (UniProt P23798); assay: as above
T2 sequence: T1 sequence

[5] = target: RING1B (mouse (endogenous in mESCs, NSCs, FSPE fibroblasts)) (UniProt Q9CQJ4); assay: co-IP; endogenous proteins from FSPE mouse fibroblast nuclear extract; IP of RING1B and RYBP; with or without Benzonase or EtBr; western blot
MEL-18-Flag (mouse) [6] = target: T1, MEL-18-Flag (mouse); assay: SEC; MEL-18-Flag complexes purified from mESC nuclear extract by Flag affinity, run on Superose 6 PC 3.2/30 in C-100* buffer (100 mM KCl); fractions analysed by western blot
[7] = target: T3, MEL-18 (mouse (endogenous in mESCs, FSPE fibroblasts)), P23798; assay: co-IP; endogenous proteins from FSPE mouse fibroblast nuclear extract; IP of RING1B and RYBP; with or without Benzonase or EtBr; western blot; settings: remark: other sources report otherwise
T3 chain: T1 sequence

[8] = target: T4, MEL-18-Flag (mouse), P23798; assay: SEC; MEL-18-Flag complexes purified from mESC nuclear extract by Flag affinity, run on Superose 6 PC 3.2/30 in C-100* buffer (100 mM KCl); fractions analysed by western blot; settings: remark: other sources report otherwise
T4 chain: T1 sequence

[9] = target: T3, MEL-18 (mouse (endogenous in mESCs, …)); assay: co-IP; endogenous proteins from Eed4 WT and Eed4 cKO (doxycycline, Eed-depleted) mESC nuclear extracts; antibodies to RING1B, MEL-18, RYBP or CBX7 crosslinked to Protein A/G magnetic beads; with or without Benzonase or EtBr; washes in C-100* (100 mM KCl) at 4°C; western blot; settings: remark: other sources report otherwise
RYBP-Flag (mouse) = target: T5, RYBP-Flag (mouse) (UniProt Q8CCI5); assay: co-IP; Flag purification of MEL-18-Flag, RYBP-Flag or CBX7-Flag from PGK12.1 mESC nuclear extract, analysed by western blot
T5 sequence: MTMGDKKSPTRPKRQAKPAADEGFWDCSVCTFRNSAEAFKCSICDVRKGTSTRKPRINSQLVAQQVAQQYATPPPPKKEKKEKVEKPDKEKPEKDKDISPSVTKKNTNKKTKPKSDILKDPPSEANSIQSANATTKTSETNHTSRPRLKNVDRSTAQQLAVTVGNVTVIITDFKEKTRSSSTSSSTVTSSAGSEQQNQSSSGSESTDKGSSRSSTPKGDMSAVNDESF

[10] = target: T6, RYBP (mouse (endogenous in mESCs, NSCs, FSPE fibroblasts)) (UniProt Q8CCI5); assay: co-IP; endogenous proteins from Eed4 WT and Eed4 cKO (doxycycline, Eed-depleted) mESC nuclear extracts; antibodies to RING1B, MEL-18, RYBP or CBX7 crosslinked to Protein A/G magnetic beads; with or without Benzonase or EtBr; washes in C-100* (100 mM KCl) at 4°C; western blot
T6 sequence: T5 sequence

[11] = target: T6, RYBP (mouse (endogenous in mESCs, NSCs, FSPE fibroblasts)); assay: co-IP; endogenous proteins from FSPE mouse fibroblast nuclear extract; IP of RING1B and RYBP; with or without Benzonase or EtBr; western blot

B1: RYBP (protein, UniProt Q8CCI5 1-228)
chain: T5 sequence
In the case of B1, the binding (CBX7-Flag (mouse)) is reported as “no binding”, the binding (MEL-18-Flag (mouse) [1]) is reported as “binds” and the binding [2] is reported as “no binding”. The binding [3] was “binds”, the binding [4] was “binds” and the binding [5] was “binds”. For the same binder, the binding (MEL-18-Flag (mouse) [6]) was “binds”.

B2: CBX7, Q8VDS3 1-158 (protein)
chain: MELSAIGEQVFAVESIRKKRVRKGKVEYLVKWKGWPPKYSTWEPEEHILDPRLVMAYEEKEERDRASGYRKRGPKPRRLLLQESAAPDVVQTPGDWEPMEQAPEEEAEADLTNGPPPWTPTLPSSEVTVTDITANSVTVTFREAQAAEGFFRDRNEKL
B2 was tested, and the binding [7] was “binds”, the binding [8] was “binds” and the binding [9] was “binds”.

B3: MEL-18 (protein, UniProt P23798 1-342)
chain: T1 sequence
B3 was tested, and the binding (RYBP-Flag (mouse)) was “binds”, the binding [3] was “binds” and the binding [10] was “binds”. For the same binder, the binding [11] was “binds”.

— paper PMC3281992
